Test results: PubChem BioAssay AID624418 (National Center for Advancing Translational Sciences (NCATS), 2012)
Hit rate of the full screen: of about 410,000 compounds, about 530 (0.13%) were called active. The inconclusive results got no clear call from the source; some entries with a clear call stand among them for comparison. Calls follow the shape of the dose curve; as a rule, active = well fitted inhibition curve with a large enough effect; inconclusive = small, poorly fitted or top-dose-only effect, or another doubt; inactive = no such curve, though single readings can be large or run the other way. A potency beside an inconclusive call is a rough fit, not a confirmed value.

Experiment: qHTS of GLP-1 Receptor Inverse Agonists: Cytotox Screen
Conditions: HEK293 cAMP-luciferase reporter cells, luminescence, 24 h; series mostly up to 38.3 µM
Summary of the method: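 A 23 nL compound transfer followed 12 hours of cell culture at 37 deg C; exposure then lasted 24 hr. Luciferase assay detection reagent was dispensed and plates read for luminescence after a 12 min room-temperature wait.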
Potency is read from the fitted curve at half-maximal effect.

| SMILES | Potency |
| --- | --- |
| C=CCc1c(C)nc2c(-c3ccccc3)cnn2c1N1CCOCC1 | inactive |
| Cc1ccc(-c2nnc3ccccc3c2C(=O)Nc2ccccc2F)cc1 | inactive |
| COc1ccc(Cl)cc1NC(=O)CSc1cn(CC(=O)N2CCCCCC2)c2ccccc12 | inactive |
| Cc1cc(Nc2ccc(N3CCOCC3)cc2)c2cccc(C)c2n1 | inconclusive: 11.2 µM [inhibitor, partial curve, poor fit] |
| CCC(=Nc1ccccc1O)C1=C(O)CC(c2ccccc2)CC1=O (stereo unspecified) | inconclusive: 11.2 µM [inhibitor, partial curve, poor fit] |
| N#Cc1c(-c2ccccc2)c(-c2ccccc2)nn(CC(=O)NNC(=O)Nc2ccccc2)c1=O | inconclusive: 2.82 µM [inhibitor, partial curve] |
| CN1CCN(C2=Nc3c(Cl)cc(Cl)c4cccc2c34)CC1 | inconclusive: 28.2 µM [inhibitor, single point] |
| COCCNc1nc(=S)[nH]c2cc(OC)c(OC)cc12 | inactive |
| COc1ccc(C(=O)/C(=C/O)N=Nc2ccc(F)cc2)cc1 | inconclusive: 10 µM [inhibitor, partial curve, poor fit] |
| Cc1ccccc1OCCn1c(=S)[nH]c2ccccc21 | inconclusive: 22.4 µM [inhibitor, single point] |
| Cc1ccc(CSc2nc3ccccc3cc2C=O)cc1 | inconclusive: 7.94 µM [inhibitor, partial curve, poor fit] |
| Cn1cccc1C(=O)C(=O)Nc1ccccc1 | inactive |
| C/C(=N\NC(N)=S)C1(C)CCCCC1 | inconclusive: 11.2 µM [inhibitor, partial curve, poor fit] |
| CCOC(=O)c1c(C)n(CCNC(C)=O)c2ccc(O)cc12 | inconclusive: 17.8 µM [inhibitor, single point] |
| O=c1c2ccccc2sn1-c1ccccc1 | inconclusive: 8.91 µM [inhibitor, partial curve, poor fit] |
| C[C@H]1NC(=O)[C@@]2(C)[C@@H](c3ccccc3)[C@H]3COc4ccccc4[C@@H]3N2C1=O | inconclusive: 8.91 µM [inhibitor, partial curve, poor fit] |
| COc1ccc(-n2cc(-c3ccccc3)nc2SCC(=O)Nc2ccccc2)cc1Cl | inactive |
| CS(=O)(=O)c1cccc(C(=O)Nc2ccccc2Cc2ccccc2)c1 | inconclusive: 28.2 µM [inhibitor, single point] |
| CC(OC(=O)CNC(=O)c1ccc2ccccc2c1)C(=O)NC1CCCCC1C (stereo unspecified) | inconclusive: 28.2 µM [inhibitor, single point] |
| CCC(C)NCC(=O)Nc1cc(S(=O)(=O)N(CC)c2ccccc2)ccc1Cl (stereo unspecified) | inactive |
| Nc1ccc2c(c1)Cc1cc([N+](=O)[O-])ccc1-2 | inactive |
| COc1ccc(/C=N/OC(=O)Nc2ccccc2OC)cc1 | inconclusive: 2.51 µM [inhibitor, partial curve, poor fit] |
| CN1CCN(C(=O)CCN2C(=O)/C(=C\c3ccccc3F)SC2=S)CC1 | inconclusive: 10 µM [inhibitor, single point] |
| O=C1NC(=S)SC1=Cc1ccccc1Br | inconclusive: 12.6 µM [inhibitor, single point] |

| SMILES | Potency |
| --- | --- |
| COc1cc2c(cc1OC)CN(Cc1ccc(OC)c(C)c1OC)CC2 | inactive |
| CSc1ccc(C(=O)C2CCCN(C(=O)c3ccc4c(c3)no[n+]4[O-])C2)cc1 (stereo unspecified) | inconclusive: 14.1 µM [inhibitor, partial curve, poor fit] |
| CCOC(=O)CNS(=O)(=O)c1cc(-c2nnc(Nc3ccc4c(c3)OCO4)c3ccccc23)ccc1C | inconclusive: 20 µM [inhibitor, single point] |
| Clc1ccc2c(N/N=C/c3cccnc3)ccnc2c1 | inconclusive: 28.2 µM [inhibitor, single point] |
| COC(=O)c1cc2c(ccn2-c2ccc(F)cc2)n1Cc1cccc(OC)c1 | inactive |
| CCOc1ccc(Cl)cc1-c1cc(C(=O)Nc2cc(OC)c(OC)c(OC)c2)[nH]n1 | inconclusive: 31.6 µM [inhibitor, single point] |
| N#C/C(=C\Nc1ccc2c(c1)OCCO2)C(=O)NCc1ccco1 | inactive |
| CC(C)Cc1ccc(C(C)/C=C2/CCC(CN3CCCCC3)C2=O)cc1 (stereo unspecified) | inconclusive: 22.4 µM [inhibitor, single point] |
| O=S(=O)(c1cccc(-c2nnc(-c3ccc(Br)cc3)o2)c1)N1CCCCCC1 | inactive |
| CC1CCN(c2nc(N(C)c3ccccc3)nc(N)c2[N+](=O)[O-])CC1 | inconclusive: 11.2 µM [inhibitor, partial curve] |
| O=C(COC(=O)c1ccccc1C(=O)c1ccc(Cl)c([N+](=O)[O-])c1)NC1CCCCCC1 | inconclusive: 28.2 µM [inhibitor, single point] |
| COc1ccc(CNCc2cccc3ccccc23)cc1 | inactive |
| Cc1cc2cc(CN(CCCO)S(=O)(=O)c3cccc4nsnc34)c(=O)[nH]c2cc1C | inconclusive: 10 µM [inhibitor, single point] |
| COc1ccc2nc(NC(=O)C3CSC4(C)CCC(=O)N34)sc2c1 (stereo unspecified) | inactive |
| CC(C)NCC(O)COC1CCC(C(C)(C)C)CC1 (stereo unspecified) | inconclusive: 28.2 µM [inhibitor, single point] |
| CCOC(=O)C(=Cc1ccc(-n2cncn2)cc1)C(=O)OCC | inconclusive: 7.94 µM [inhibitor, partial curve, poor fit] |
| CCN(c1ccccc1)S(=O)(=O)c1ccc(NC(=O)c2cc(=O)c3cc(C)c(C)cc3o2)cc1 | inactive |
| COc1cccc(NC(=O)CN(C)C(=O)c2cc(-c3cccc(Br)c3)nc3ccccc23)c1 | inconclusive: 28.2 µM [inhibitor, single point] |
| CCOC(=O)c1c(C)n(CCNC(C)=O)c2ccc(OC)cc12 | inactive |
| COc1cc(C(=O)Nc2ccc3oc(-c4ccccc4)nc3c2)cc(OC)c1OC | inconclusive: 28.2 µM [inhibitor, single point] |
| CC(C)(C)NCC(=O)N/N=C/c1ccc(OCc2ccccc2)cc1 | inactive |
| CC(=O)C(C(C)=O)c1c(Cl)c(O)c(O)c2c(C(=O)c3ccccc3)coc12 | inactive |
| O=C(CCC(=O)OCc1ccc(C(=O)Oc2ccccc2)cc1)Nc1cccc2ccccc12 | inconclusive: 14.1 µM [inhibitor, partial curve, poor fit] |
| Cn1c2ccccc2c2c(C(=O)N3CCN(c4ccc(F)cc4)CC3)cn(C3CCCCC3)c(=O)c21 | inactive |

| SMILES | Potency |
| --- | --- |
| CC(=O)Cc1nsc(NC(=O)c2ccc(-c3cc(C(F)(F)F)ccc3Cl)o2)n1 | inconclusive: 28.2 µM [inhibitor, single point] |
| O=C(Nc1ccc(Br)cn1)c1cccc(C(=O)Nc2ccc(Br)cn2)c1 | inactive |
| COc1ccc([N+](=O)[O-])cc1NC(=S)NC(NC(=O)Cc1ccc(OC)c(OC)c1)C(Cl)(Cl)Cl (stereo unspecified) | inconclusive: 11.2 µM [inhibitor, partial curve, poor fit] |
| Cc1ccc(-c2n[nH]c(Cc3ccccc3)n2)cc1 | inactive |
| CCOc1ccc(NC(=O)Nc2ccc3nccnc3c2)cc1 | inconclusive: 28.2 µM [inhibitor, single point] |
| CCOC(=O)C1(Cc2cccc(OC)c2)CCCN(C(=O)c2ccccc2C)C1 (stereo unspecified) | inconclusive: 1 µM [inhibitor, full curve, poor fit] |
| CN(C)S(=O)(=O)c1ccc(Cl)c(C(=O)NNC(=O)Cn2ccc(C(F)(F)F)n2)c1 | inactive |
| O=C1NC(c2cccc(OCc3ccccc3)c2)Nc2ccccc21 (stereo unspecified) | inconclusive: 0.562 µM [inhibitor, full curve, poor fit] |
| CC1=CN2C(=N)/C(=C/c3ccc([N+](=O)[O-])o3)C(=O)N=C2S1 | inconclusive: 11.2 µM [inhibitor, single point] |
| S=C1NC[C@H](CC2CCCCC2)N1CC1CCCCC1 | active: 5.62 µM |
| Cc1cc2c(SCC(=O)NCC3CCCO3)ncnc2s1 (stereo unspecified) | inconclusive: 0.562 µM [inhibitor, full curve, poor fit] |
| O=C(NCCc1ccc(Cl)cc1)C1CCC(CNc2nc(=S)[nH]c3ccccc23)CC1 (stereo unspecified) | inactive |
| O=C(/C=C/Sc1ccccc1)c1ccccc1 | inconclusive: 7.08 µM [inhibitor, partial curve, poor fit] |
| Cc1cccc2nc3ccccc3cc12 | inactive |
| CCN(CC)c1ccc(NC(=O)COc2ccccc2C#N)cc1S(=O)(=O)Nc1ccc(OC)cc1 | inconclusive: 5.62 µM [inhibitor, partial curve, poor fit] |
| Cc1cc(C)cc(OC(=O)c2snnc2C)c1 | inactive |
| Oc1ccc(CN2CCCc3ccccc32)c2cccnc12 | inconclusive: 8.91 µM [inhibitor, partial curve] |
| Nc1cccc2nsnc12 | inconclusive: 12.6 µM [inhibitor, single point] |
| CC1CCCN(CCCOc2ccc(Br)cc2Cl)C1 (stereo unspecified) | inconclusive: 28.2 µM [inhibitor, single point] |
| CC(C)n1c(=S)[nH]c2scc(-c3cccs3)c2c1=O | inconclusive: 28.2 µM [inhibitor, partial curve, poor fit] |
| CC(C)CN1CCC(=O)N([C@H](COc2ccccc2)c2ccccc2)CC1 | inconclusive: 28.2 µM [inhibitor, single point] |
| OC(COCC(F)(F)C(F)(F)C(F)(F)C(F)F)Cn1c2ccccc2c2ccccc21 (stereo unspecified) | inconclusive: 14.1 µM [inhibitor, single point] |
| CCN(CC)S(=O)(=O)c1ccc2c(c1)N(CC(=O)N1CCN(c3ccccc3F)CC1)C(=O)CO2 | inactive |
